Assay results reported in paper PMC6919601, “Identification of Plasmodium dipeptidyl aminopeptidase allosteric inhibitors by high throughput screening” (PLoS ONE, 2019).
Values joined by “and” are separate entries in the source; they are usually repeats but may differ in a detail not shown here. Equal entries are not always repeated. The campaign covered roughly 110,000 compounds. About 230 (0.21%) showed an effect of 50% or more. This is one part of the list.

Target: DPAP1 (Plasmodium falciparum, UniProt Q8IIJ9)
Experiment: primary screen, percent inhibition; read by cleavage of a fluorogenic dipeptide substrate; higher = more effect of the substance
Set-up: species or system P. falciparum D10 trophozoite lysates; single well
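Also: 30 min substrate incubation versus DMSO and 10 µM JCP410 controls.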

DPAP1, sequence (Q8IIJ9 whole entry, looked up): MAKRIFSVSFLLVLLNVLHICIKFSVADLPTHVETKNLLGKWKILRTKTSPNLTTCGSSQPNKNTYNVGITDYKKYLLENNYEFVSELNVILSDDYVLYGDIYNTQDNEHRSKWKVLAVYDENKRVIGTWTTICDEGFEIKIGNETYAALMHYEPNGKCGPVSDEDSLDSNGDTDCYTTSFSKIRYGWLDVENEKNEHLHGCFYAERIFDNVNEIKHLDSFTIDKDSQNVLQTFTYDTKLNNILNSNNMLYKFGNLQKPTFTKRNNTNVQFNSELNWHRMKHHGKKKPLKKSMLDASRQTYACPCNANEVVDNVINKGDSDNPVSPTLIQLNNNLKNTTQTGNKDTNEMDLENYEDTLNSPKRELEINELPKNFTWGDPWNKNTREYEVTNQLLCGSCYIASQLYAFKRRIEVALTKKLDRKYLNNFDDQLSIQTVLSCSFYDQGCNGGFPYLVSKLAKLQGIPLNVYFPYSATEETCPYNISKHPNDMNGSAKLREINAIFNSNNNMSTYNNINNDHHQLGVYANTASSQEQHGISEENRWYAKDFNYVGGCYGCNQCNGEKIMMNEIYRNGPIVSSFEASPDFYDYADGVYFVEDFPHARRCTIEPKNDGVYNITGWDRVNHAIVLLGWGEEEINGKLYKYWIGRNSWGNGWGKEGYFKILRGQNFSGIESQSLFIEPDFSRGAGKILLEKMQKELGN

Row | Structure (SMILES) | % Inhibition @ 10 uM
1 | COc1ccc(OC)c(CN2C(=O)c3ccccc3C2C(=O)NC2CCCCCC2)c1 (stereo not drawn) | 2.93%
2 | CC(C)c1ccc(C2c3c(oc4ccccc4c3=O)C(=O)N2c2nncs2)cc1 (stereo not drawn) | -5%
3 | CC(C)C[C@H](NC(=O)c1ccc(-c2ccccc2)cc1)C(=O)NCC#N | 14.7%
4 | O=C(CN1C(=O)c2ccccc2S1(=O)=O)Nc1sc2c(c1C(=O)O)CCCC2 | -1.82%
5 | COc1ccc(NC(=O)c2sc3nc(C)cc(C)c3c2N)cc1 | 1.75%
6 | COc1cccc(Oc2nc(C)nc3sc4c(c23)CCCC4)c1 | 3.82%
7 | O=C1c2cc(S(=O)(=O)NCCO)ccc2-c2ccc(S(=O)(=O)NCCO)cc21 | -2.41%
8 | CC(C)Oc1ccc(C(=O)N(Cc2ccccc2)c2ccccn2)cc1 | 3.62%
9 | CCc1nnc2sc(NC(=O)c3ccc(OC)c(OC)c3)nn12 | 9.28%
10 | Cc1cccc(/N=C/c2c(C)nn(-c3cccc(C)c3)c2O)c1 | 2.51%
11 | CCSC1=C(C#N)C(c2ccccc2)C(c2ccccc2)CN1 (stereo not drawn) | 2.01%
12 | COc1ccc(OCC(=O)Nc2cc(OC)ccc2OC)cc1 | -5.27%
13 | O=C(CN1CCCCC1)N1CCn2c3c(c4cc(C5CCCCC5)ccc42)CCCC31 (stereo not drawn) | -1.64%
14 | CC1CC(C)CN(C(=O)CCNS(=O)(=O)c2cc(Br)cnc2N)C1 (stereo not drawn) | 0.229%
15 | Cc1cccc(NC(=O)c2cc3c(Cl)nc4ccccc4c3s2)n1 | 12.3%
16 | COc1cccc(C2=CC(c3ccccc3Cl)n3nnnc3N2)c1 (stereo not drawn) | -7.08%
17 | OCCN1CCN(Cc2ccc(-c3ccccc3)cc2)CC1 | 0.526%
18 | CC(=O)N(C)c1ccc(NC(=O)COc2ccc(Cl)cc2C)cc1 | 1.62%
19 | CC(=O)N1CCC(NCc2ccc3c(c2)OCO3)CC1 | -0.292%
20 | Cc1nc2ccn(Cc3cccnc3)c(=O)c2cc1C(=O)N1CCN(c2ncccn2)CC1 | 0.212%
21 | O=C(CN1C2=NCCCN2c2ccccc21)c1ccccc1 | 2.64% and -4.67%

Row | Structure (SMILES) | % Inhibition @ 10 uM
22 | CCC(C)N(CCNC(=O)C1CCCN(c2nc(-c3ccc(OC)cc3)no2)C1)Cc1ccco1 (stereo not drawn) | -6.56%
23 | Cc1cccc(C(=O)Nc2ccc(S(=O)(=O)N3CCCCCC3)cc2)c1 | -0.992%
24 | COc1ccc2[nH]cc(CCNC(=O)C(C)c3ccc(CC(C)C)cc3)c2c1 (stereo not drawn) | -1.76%
25 | Cc1ccc(-c2csc3ncnc(-n4nc(C)cc4N)c23)cc1 | -7.14%
26 | COc1ccc(OC)c(NC(=O)CN(c2cccc(C(F)(F)F)c2)S(C)(=O)=O)c1 | -9.65%
27 | CSc1ccc(C(=O)N[C@@H](CC2CCCCC2)C(=O)NCC#N)s1 | -3.49%
28 | OCCN(CCO)Cc1ccc(F)c(F)c1 | -5.59%
29 | CC(C)(C)c1ccc(S(=O)(=O)N2CCN(c3ccccc3)CC2)cc1 | 3.24%
30 | Cc1ccc(-c2nc3cc(NC(=O)c4ccc5c(c4)OCCO5)ccc3o2)cc1 | -0.115%
31 | Clc1ccc(CSc2nc3ccncc3[nH]2)cc1 | 0.0882%
32 | O=C(c1ccco1)n1nc(-c2ccco2)nc1SCc1ccccc1 | -2.75%
33 | O=c1/c(=C/c2ccc(-c3ccc(Br)cc3)o2)sc2nc3ccccc3n12 | -3.63%
34 | Cc1ccccc1N1C(=O)/C(=C\c2ccc(N(C)C)cc2)C(=O)NC1=S | 4.15%
35 | Cc1ccc(-n2c(C)cc(C(=O)CN3CCCCC3)c2C)cc1 | 15.9%
36 | COc1ccc(C2CC(=O)C(/C=N/c3ccc(OC)c(OC)c3)=C(O)C2)cc1 (stereo not drawn) | -4.75%
37 | O=S(=O)(NCc1ccc2c(c1)OCO2)c1ccc(Br)cc1 | -14.4%
38 | Cc1cc2c(c(=O)n1Cc1cccnc1)C(c1cccnc1)C(C#N)=C(N)O2 (stereo not drawn) | -3.39%
39 | O=C(CCn1cnc2onc(-c3ccc(F)cc3)c2c1=O)NCCc1ccc(Cl)cc1 | -4.97%
40 | CCN(CC)CCNC(=O)C1c2cc(OC)c(OC)cc2C(=O)N2CCc3ccccc3C12 (stereo not drawn) | -1.54%
41 | CCCN1CCC(N2CCCC2)CC1 | 2.94%
42 | Cc1cc(C)c(C)c(S(=O)(=O)Nc2ccc(C(=O)N3CCCC3)cc2)c1C | -14.4%

Row | Structure (SMILES) | % Inhibition @ 10 uM
43 | Cc1ccc(NC(=O)C(c2ccncc2)N(C)C(=O)CNC(=O)c2ccccc2)cc1 (stereo not drawn) | -3.26%
44 | Cc1cccc(C(=O)N2CCCN(C(=O)c3cccc(C)c3)CC2)c1 | -10.6%
45 | NC(=O)c1c(NC(=O)c2ccc(Cl)c([N+](=O)[O-])c2)sc2c1CCCC2 | -5.28%
46 | CNc1c(NC(=O)Cc2ccc(OC)c(OC)c2)c(=O)oc2ccccc12 | 0.128%
47 | COc1ccccc1-n1c(O)cc(=O)nc1SCc1ccccc1 | 0.343%
48 | Clc1ccc(OCCSc2n[nH]c3nc4ccccc4n23)cc1 | -5.38%
49 | CC(O)(C#Cc1ccccc1)c1ccc(N2CCCCC2)c(F)c1 (stereo not drawn) | -1.5%
50 | Cc1cc(C)cc(NC(=O)c2ccncc2)c1 | 4.22%
51 | O=C(CCc1ccccc1)Nc1scc(-c2ccccc2)c1C(=O)O | -3.63%
52 | O=C1Cc2ccccc2C(c2c(Cl)cccc2Cl)N1 (stereo not drawn) | -2.48%
53 | NC(=O)c1c(NC(=O)Cc2ccc(Cl)cc2)sc2c1CCCCC2 | 0.316%
54 | CC(=O)NC(=O)/C(=C(/C)Nc1ccccc1)c1ccccc1 | -1.88%
55 | NC(=O)CSc1nc2c(c(=O)n1CCc1ccccc1)SCC2 | -4.32%
56 | Cc1nn(-c2nc3ccccc3[nH]2)c(O)c1C1OC(=O)c2ccccc21 (stereo not drawn) | -3.5%
57 | Cc1sc(NC(=O)c2ccccc2C(=O)O)c(C(N)=O)c1C | -2.85%
58 | CCOC(=O)c1c(NC(=O)c2cc3ccccc3o2)sc2c1CCCC2 | 1.25%
59 | CCCCN(CCNC(=O)c1nn(C)c2c1CSc1ccccc1-2)Cc1ccco1 | 0.00665%
60 | Cn1c2ccccc2c2nnc(SCC(=O)Nc3ccc(Cl)cn3)nc21 | 14.1%
61 | CCCc1nn(C)c(C(=O)Nc2ccccc2C)c1Cl | -1.84%
62 | COc1ccc(Nc2nc(Cl)nc(NCc3cccnc3)n2)c(OC)c1 | 0.823%
63 | Cc1cc(C)n(-c2ccc(NC(=O)Cn3nc(C(F)(F)F)cc3C3CC3)cc2)n1 | -1.36%
